# Experimental data published in PubChem BioAssay AID485344 (National Center for Advancing Translational Sciences (NCATS), 2010).
# About 6,900 (2%) of roughly 340,000 compounds were called active. No stated cut-off is given here; in the data, active means inhibition above about 30%; inactive means below that, where a call was filed. The list shows a part of the results, in another mix than the full data. Where no call is shown, the source filed none.
# Target: D(2) dopamine receptor (Homo sapiens) (UniProt P14416)
# Sequence of UniProt P14416 (P14416 whole entry, looked up): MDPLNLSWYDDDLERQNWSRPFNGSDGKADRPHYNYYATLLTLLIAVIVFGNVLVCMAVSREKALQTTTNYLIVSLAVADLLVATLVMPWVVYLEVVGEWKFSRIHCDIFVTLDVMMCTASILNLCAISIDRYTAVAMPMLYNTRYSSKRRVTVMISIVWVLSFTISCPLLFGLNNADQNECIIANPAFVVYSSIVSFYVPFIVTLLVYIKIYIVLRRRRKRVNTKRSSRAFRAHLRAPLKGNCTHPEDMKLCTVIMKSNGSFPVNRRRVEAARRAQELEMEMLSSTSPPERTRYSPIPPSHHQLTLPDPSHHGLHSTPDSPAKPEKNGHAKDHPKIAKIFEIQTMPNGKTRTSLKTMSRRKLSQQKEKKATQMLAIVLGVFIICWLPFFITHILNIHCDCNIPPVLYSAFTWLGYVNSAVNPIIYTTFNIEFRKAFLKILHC
# Experiment: HTS Assay for Allosteric Antagonists of the Human D2 Dopamine Receptor: Primary Screen for Antagonists; further: 0% is about no effect
# Conditions: HEK293 TREx D2 cells, calcium flux, dopamine EC80; at 10 µM; stronger effect = higher value
# Procedure, shortened: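 Cells plated overnight at 30 C with tetracycline; no-wash calcium dye, 30–90 min RT; 10 s baseline; compound pinned; 180 s read; EC80 dopamine added; another 180 s read.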
row,Compound,inhibition
1,CCOc1ccc(NC(=O)Cn2cc(C(=O)c3ccc(F)cc3)c(=O)c3cc4c(cc32)OCCO4)cc1,17.9%
2,CC(=O)c1cc(-c2ccccc2)n(CCC(=O)Nc2ccc(C(C)C)cc2)c1C,-15.2%
3,Cc1ccc(-n2ncc(C(=O)N3CCN(Cc4ccccc4)CC3)c2C2CCN(C(=O)OC(C)(C)C)CC2)cc1,13.1%
4,COc1ccc(CN2CCCC(C(=O)c3ccc(SC)cc3)C2)cc1Cn1cccn1 (stereo not drawn),active: 32.7%
5,COc1ccccc1CNC(=O)c1ccc2c(c1)N(Cc1cc(C)ccc1C)C(=O)c1ccccc1S2,0.229%
6,CCCCNC(=O)c1cc2c(=O)n3cccc(C)c3nc2s1,16.7%
7,Cc1ccc(CNC(=O)c2oc3ccc(S(=O)(=O)N4CCC(C)CC4)cc3c2C)cc1,-6.12%
8,Cc1cccc(OCC(=O)Nc2ccc3nc(Nc4cccc(C(F)(F)F)c4)cc(C)c3c2)c1,2.18%
9,CCCCN1C(=O)CN(C2CCCCCC2)C(=O)C1c1ccc(OC(C)C)c(OC)c1 (stereo not drawn),2.4%
10,COc1cc(C(=O)Nc2nc(C)c(Cc3ccc4c(c3)OCO4)s2)cc(OC)c1OC,active: 39.7%
11,Cc1ccccc1CN1C(=O)C(O)(CC(=O)c2ccccc2)c2cc(Cl)ccc21 (stereo not drawn),-0.81%
12,COc1ccc(NC(=O)C2=C(C)C(=O)OC23CCN(C(C)C)CC3)cc1Cl,-1.39%
13,Cc1ccccc1NC(=O)CSc1nc2ccc(NC(=O)c3ccccc3)cc2s1,17.6%
14,CC(=O)OCc1cnc(C)c2oc(=O)c(C(=O)Nc3ccc(C)cc3Cl)cc12,-11.6%
15,COc1ccc(-c2coc3c2c(C)cc2oc(=O)c(C)c(C)c23)cc1,1.83%
16,CC(C)C(NC(=O)CN(c1cccc(F)c1)S(C)(=O)=O)C(C)C,active: 38.6%
17,CC1CCC(Nc2ncnc3onc(-c4ccc(Cl)cc4)c23)CC1 (stereo not drawn),1.16%
18,O/N=C1\CCCCc2ccccc21,active: 33%
19,O=C(Nc1ccc2nc(SCC(=O)N3CCCc4ccccc43)sc2c1)c1cccc(Cl)c1,14%
20,COc1ccc(CCNC(=O)C2CCN(c3nc4ccccc4nc3C(F)(F)F)CC2)cc1OC,-2.48%
21,COc1ccc(C(=O)Oc2c(Sc3ccccc3)c(C)nn2-c2ccccc2)cc1OC,-22%
22,Cc1ccc(NC(=O)CN2C(=O)CSc3ccc(S(=O)(=O)N4CCCC4)cc32)c(C)c1,-8.89%
23,CCc1ccccc1Nc1cc(C(=O)NCCc2ccccc2)c2ccccc2n1,-5.47%
24,COc1ccc(N2CCN(Cc3cc(=O)oc4ccc(OC)cc34)CC2)cc1,10.6%

row,Compound,inhibition
1,COc1ccccc1NC(=O)C1=C(C)Nc2nc3ccccc3n2C1c1cccc(Br)c1 (stereo not drawn),9.05%
2,CCOC(=O)c1ccc2c(c1)N(Cc1cccc(C(F)(F)F)c1)C(=O)c1ccccc1S2(=O)=O,-0.339%
3,CCCCNc1ccc2c3c(cccc13)C(=O)N(CCCC)C2=O,active: 80.9%
4,O=C(Cn1c(=O)n(-c2ccc(F)cc2)c(=O)c2sc3ccccc3c21)NC1CCCCC1,3.59%
5,CCCOc1ccc(Nc2cc(C)nc(C)n2)cc1,-1.25%
6,COc1ccc(OC)c(CCNc2nccn(-c3ccc(C)c(C)c3)c2=O)c1,2%
7,COc1ccc(NC(=O)CSCC(=O)N(C)Cc2ccc3c(c2)OCCO3)cc1,active: 35.1%
8,CCCn1ccc2c(OCC(=O)Nc3ccccc3OCC)cccc2c1=O,-8.77%
9,Cn1c(SCc2cccc(F)c2)nc2c([nH]c3ccccc32)c1=O,16.4%
10,O=C(NCC(c1cccnc1)N1CCOCC1)C(=O)Nc1ccc(F)cc1 (stereo not drawn),12.9%
11,COc1ccc(Cn2c(=O)[nH]c3cc(C(=O)N4CCN(c5ccccc5)CC4)ccc3c2=O)cc1,27.7%
12,Cc1ccc(CNC(=O)CCC(=O)N2Cc3ccccc3Oc3ncccc32)cc1,-2.55%
13,CCc1nc2onc(C)c2c(=O)n1CC(=O)O,-1.86%
14,O=C(c1cccc(Cl)c1)N(Cc1ccco1)Cc1ccccc1Cl,10.7%
15,COc1ccc2c(c1)c1c(c(=O)n(Cc3ccccc3)c(=O)n1CC(=O)Nc1c(C)cccc1C)n2C,7.02%
16,Cc1ccc(S(=O)(=O)NCCc2sc3nc(-c4ccccc4)nn3c2C)cc1C,8.84%
17,Cc1ccccc1-c1nc(CS(=O)(=O)CC(=O)Nc2cccc(C(F)(F)F)c2)c(C)o1,-8.68%
18,O=S(=O)(Nc1cccc(-c2ccc(N3CCCCCC3)nn2)c1)c1ccccc1,8.83%
19,CC(C)c1ccccc1OCCCN1CCCC1,active: 64.5%
20,CCn1c(SCC(=O)N2CCC(C)CC2)nnc1-c1ccccc1O,17.8%
21,Cc1oc(-c2cccc(Br)c2)nc1Cn1c(=O)cc(-c2ccccc2)c2c(C)nn(C)c21,13.2%
22,COc1ccc(-c2noc(Cn3c(=O)c4ccccc4n(CC(=O)Nc4cccc(C(F)(F)F)c4)c3=O)n2)cc1,12.1%
23,Cc1ccc(C)c(NS(=O)(=O)c2ccc3c(c2)n(C)c(=O)n3C)c1,-20.6%
24,O=C(Cc1ccc(F)cc1)NCCc1csc(-c2cccc(F)c2)n1,-6.51%
